Screen size: about 310,000 compounds; about 2,200 (0.71%) showed an effect of 50% or more. The effect is printed as a negative number. Some of the results follow.
Target: human ether-à-go-go-related gene (hERG) potassium channel (human, UniProt Q12809)
Test: primary screen, population patch clamp on CHO cells stably expressing hERG

Sequence of human ether-à-go-go-related gene (hERG) potassium channel (Q12809 whole entry, looked up): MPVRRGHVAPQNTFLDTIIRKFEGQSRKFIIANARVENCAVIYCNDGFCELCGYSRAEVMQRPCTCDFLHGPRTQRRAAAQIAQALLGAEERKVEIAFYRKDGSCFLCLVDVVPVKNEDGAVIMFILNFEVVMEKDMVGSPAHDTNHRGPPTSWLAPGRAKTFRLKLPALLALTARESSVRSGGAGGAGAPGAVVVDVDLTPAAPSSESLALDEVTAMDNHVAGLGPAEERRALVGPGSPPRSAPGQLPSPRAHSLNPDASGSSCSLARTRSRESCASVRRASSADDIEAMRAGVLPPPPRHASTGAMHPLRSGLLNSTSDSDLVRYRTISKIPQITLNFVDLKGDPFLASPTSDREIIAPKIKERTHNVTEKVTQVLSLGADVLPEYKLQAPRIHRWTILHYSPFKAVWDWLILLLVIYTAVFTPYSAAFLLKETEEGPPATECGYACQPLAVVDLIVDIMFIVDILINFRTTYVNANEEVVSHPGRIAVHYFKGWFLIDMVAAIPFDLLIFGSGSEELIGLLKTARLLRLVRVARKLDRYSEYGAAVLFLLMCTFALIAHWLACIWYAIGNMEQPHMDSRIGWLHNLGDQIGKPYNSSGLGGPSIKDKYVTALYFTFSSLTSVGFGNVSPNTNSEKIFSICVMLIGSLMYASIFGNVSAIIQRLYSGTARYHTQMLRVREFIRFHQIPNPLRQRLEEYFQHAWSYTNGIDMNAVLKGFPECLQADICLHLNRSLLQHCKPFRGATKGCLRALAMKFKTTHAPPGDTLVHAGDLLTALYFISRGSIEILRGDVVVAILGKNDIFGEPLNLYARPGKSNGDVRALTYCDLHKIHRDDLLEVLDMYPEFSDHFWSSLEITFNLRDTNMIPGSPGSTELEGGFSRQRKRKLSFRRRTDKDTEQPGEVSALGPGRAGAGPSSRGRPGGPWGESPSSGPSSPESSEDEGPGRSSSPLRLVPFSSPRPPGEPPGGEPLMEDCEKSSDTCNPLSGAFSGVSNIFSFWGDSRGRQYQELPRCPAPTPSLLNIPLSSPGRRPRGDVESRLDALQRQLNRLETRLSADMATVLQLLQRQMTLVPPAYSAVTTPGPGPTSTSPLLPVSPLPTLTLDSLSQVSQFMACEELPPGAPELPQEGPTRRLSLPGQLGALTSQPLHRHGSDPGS

SMILES	hERG current change (%, negative = inhibition) at 1uM [%]
Cc1cc(C(=O)Nc2sc3c(c2C#N)CCC(C)C3)no1 (stereo not drawn)	11.6
CCOC(=O)Cc1csc(NC(=O)/C=C/c2ccccc2Cl)n1	9.26
COc1cccc(CNC(=S)NC2CC2)c1	17.2
O=C(NC(=S)NNS(=O)(=O)c1ccccc1)c1cccnc1	17.3
Cc1nc2sc3c(c2c(=O)o1)CCCC3	7.29
COc1ccc(CNC(=O)C(C)OC(=O)CCN2C(=O)C3CC=CCC3C2=O)cc1 (stereo not drawn)	6.55
Cc1ccccc1C1CC(c2ccc(F)cc2)Nc2nc(N)nn21 (stereo not drawn)	-18.2
Cc1cccc(C(=O)OC(C)CN2CCCC2)c1.Cl (stereo not drawn)	13.4
Cc1onc(-c2ccccc2)c1CNC(=O)C1COc2ccccc2O1 (stereo not drawn)	1.47
COc1ccc(C)cc1NC(=O)C1COc2ccccc2O1 (stereo not drawn)	5.27
CC(C)C(=O)Nc1ccc(N2CCN(c3ccc(F)cc3)CC2)cc1	12.7
CSCC[C@H](NC(=O)N1CCn2c1nc1ccccc12)C(=O)N[C@@H](C(=O)O)c1ccccc1	-1.35
COc1cccc(C2=NOC(C(=O)Nc3ccc(C(C)=O)cc3)C2)c1 (stereo not drawn)	0.0862
CCOC(=O)C(NC(C)=O)(NC(C)C)C(F)(F)F (stereo not drawn)	11.3
CCOC(=O)N1CCC(N2CCCC(C(=O)c3cc(C)c(OC)c(C)c3)C2)CC1 (stereo not drawn)	-28.1
O=C(Cn1cnc2cc([N+](=O)[O-])ccc2c1=O)NCc1ccccc1	5.57
Cn1c(=O)c2c(nc(CN3CCC(C(N)=O)CC3)n2Cc2ccccc2Cl)n(C)c1=O	7.64
Cc1ccc(NC(=O)COC(=O)C2CC2)c(Br)c1	7.04
CC(C(=O)OCC(=O)Nc1ccc(S(=O)(=O)N2CCCCC2)cc1)N1C(=O)c2ccccc2C1=O (stereo not drawn)	12.9
COC(=O)c1ccc(C(=O)N(C)C2CCCN(Cc3ccccc3F)C2)cc1 (stereo not drawn)	3.95
Cc1ccc(NC(=O)c2cccc(S(=O)(=O)N(C)c3ccccc3)c2)cc1S(=O)(=O)N1CCOCC1	9.86
CC1CC(C)CN(CC(=O)N2CCOCC2)C1.Cl (stereo not drawn)	8.87
COC(=O)CCN(C(=O)c1cccc(OC(C)=O)c1)c1ccccn1	11.4

SMILES	hERG current change (%, negative = inhibition) at 1uM [%]
Cc1ccc(C2N(c3nccs3)C(=O)C3CCCN32)cc1 (stereo not drawn)	6.75
O=C(Nc1ccc2nc(-c3ccccc3)[nH]c2c1)c1cccs1	1.23
COc1ccc2c(C)cc3n[nH]c(=S)n3c2c1	10.7
CC1/C(=N/O)CC(c2ccccc2)N(C)C1c1ccccc1 (stereo not drawn)	14.2
O=S(=O)(NC1CCSc2ccccc21)c1ccc(Cl)nc1 (stereo not drawn)	7.47
Cc1ccc(Nc2nc3c([nH]2)c(=O)n(C)c(=O)n3C)cc1	4.74
CNC(=S)NNC(=O)Cn1ccc(C)n1	-0.173
CC(C)N(C(=O)COC(=O)CNC(=O)c1ccc(Br)cc1)c1ccccc1	15.5
CNS(=O)(=O)c1cc2c3c(cccc3c1)C(=O)NC2=O	8.87
COc1ccc(C(=O)n2c(SC)nc3cc4c(cc32)OCCO4)cc1	9.73
Oc1c(Cl)cc(Cl)cc1/C=N/c1nccs1	-5.02
O=C(O)Cc1ccc(-c2ccccc2-c2ccccc2)cc1	7.1
COc1cccc(NC(=O)c2cccc(OC)c2OC)c1	7.39
CCOCCCNC(=O)c1ccc(N(C)S(=O)(=O)c2ccc(OC)cc2)cc1	7.45
CCCn1nc2cc(C(=O)NCc3ccccc3)ccc2c1OCC	3.87
CCN(CC)S(=O)(=O)c1ccc2c(c1)nc(SCC(=O)NC1CC1)n2-c1ccccc1OC	-9.78
Cc1ccccc1NS(=O)(=O)c1cccc2nonc12	12.5
C/C(=N/NC(=O)c1ccoc1C)c1ccc(NC(=O)c2ccncc2)cc1	10.3
COc1ccc(C(=O)C2=NN(C(C)=O)CC2c2ccco2)cc1 (stereo not drawn)	8.53
Cc1cccc(-n2cnc(C(=O)NNC(=S)Nc3ccc(Cl)cc3)c2)n1	11.8
CC(=O)c1cc(NC(=O)c2ccc(Cl)cc2)c(=O)oc1/C=C/N(C)C	0.673
COc1ccc(CN(Cc2nc3ccccc3c(=O)[nH]2)C(=O)c2ccco2)cc1	10.4

From article PMC4336329 (PLoS ONE, 2015)
